# Test results published in PubChem BioAssay AID1240 (Sanford-Burnham Center for Chemical Genomics, 2008).
# The whole screen tested about 50,000 compounds, of which about 800 (1.6%) showed an effect of 50% or more. The list shows a part of the results.
# Target: Bcl-2-like protein 10 (Homo sapiens) (UniProt Q9HD36)
# Experiment: Phenotype converters, Bcl-B/TR3 peptide binding displacement, primary biochemical FP (AID 1240);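 also: 0% = Bcl-B with tracer peptide and DMSO and 100% = tracer peptide lacking Bcl-B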
# Conditions: GST-Bcl-B / FITC-TR3 peptide fluorescence polarization; stronger effect = higher value; compound at 3.75 mg/L
# Chain of UniProt Q9HD36 (Q9HD36 whole entry, looked up): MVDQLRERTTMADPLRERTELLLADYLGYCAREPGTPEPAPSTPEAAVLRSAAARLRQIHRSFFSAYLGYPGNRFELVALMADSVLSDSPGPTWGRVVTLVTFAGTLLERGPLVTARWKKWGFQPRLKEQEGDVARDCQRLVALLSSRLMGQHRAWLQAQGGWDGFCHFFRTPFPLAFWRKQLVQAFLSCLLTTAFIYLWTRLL
row,SMILES,displacement [%]
1,COc1cc(C(=O)Nc2ccccc2Br)cc(OC)c1OC,-5.4
2,Cn1c(=O)c2c(ncn2CC(=O)Nc2cccc3ccccc23)n(C)c1=O,32.4
3,CC(C)(C)c1ccc(C(CC(=O)c2ccc(Br)cc2)S(=O)(=O)c2ccccc2)cc1 (stereo not drawn),12.1
4,COc1ccc(Cl)cc1C(=O)Nc1cccc(S(N)(=O)=O)c1,15.7
5,COc1ccccc1N1CCN(C(=O)COc2ccc(C)cc2C)CC1,6.6
6,CC(=O)Oc1ccc(NC(=O)CC2Sc3ccccc3NC2=O)cc1 (stereo not drawn),-4.4
7,COc1ccc(C2Nc3ccccc3C(=O)N2Cc2ccccc2)cc1Cn1nc(C)c(Cl)c1C (stereo not drawn),14
8,CCOC(=O)c1conc1-c1ccc(Br)cc1,15.9
9,O=C(Nc1ccccc1C(=O)Nc1ccc(O)cc1)c1ccccc1,17.4
10,CC1(C)CC(CC(=O)O)(Cc2ccccc2)CCO1 (stereo not drawn),8.5
11,COc1cc(/C=N/c2oc(C)c(C)c2C#N)ccc1O,16.3
12,C=CCc1c(C)nc(-c2ccccc2)nc1Nc1ccc(C(=O)O)cc1,-3.3
13,CCOc1cc(/C=C2\C(=O)N(c3ccc(S(N)(=O)=O)cc3)N=C2C)ccc1O,14.6
14,O=C(CC(c1ccccc1)c1ccccc1)Nc1ccc(Cl)cn1,12.7
15,COc1cc(C=O)cc(Br)c1OCc1ccccc1Cl,10.5
16,O=C(CSC1=NCCS1)NCc1ccco1,11
17,Cc1cccc(C)c1OCC(=O)Nc1nccs1,4.7
18,O=C(c1ccc(N2CCN(C(=O)c3ccc(F)c(F)c3)CC2)cc1)c1cccc(F)c1,-9.2
19,O=C(Nc1ccc2ccc3cccc4ccc1c2c34)c1ccccc1,13.5
20,Cn1c(CNc2ccccc2)nc2ccccc21,-1.3
21,CCCc1nn2c(N)c(C=C3C=C(Cl)C(=O)C(Cl)=C3)c(=O)nc2s1,1.1
22,O=C(Nc1ccccc1C(=O)Nc1ccccc1Cl)c1ccco1,-4.4

row,SMILES,displacement [%]
1,Cc1ccc(C(=O)c2ccc(Br)c([N+](=O)[O-])c2)cc1C,6.6
2,O=C(/C=C/c1ccccc1)NCCOC(=O)Nc1ccccc1,13.8
3,O=C(O)c1ccc(S(=O)(=O)c2ccc3c(c2)C(=O)N(NC(=O)c2ccco2)C3=O)cc1,-20.9
4,CC(=O)c1cc(C(=O)CC(=O)Nc2ccc([N+](=O)[O-])cc2)sc1Nc1ccccc1,27.1
5,CCOC(=O)C1=C(N)OC2=C(C(=O)CC(C)(C)C2)C1c1cccc(Br)c1 (stereo not drawn),0.3
6,O=S(=O)(c1ccccc1)N1CCN(Cc2cccc(Cl)c2)CC1,-8.3
7,O=C1NC(=Nc2ccccc2)S/C1=C/c1ccc(O)cc1,-5.6
8,CC(C)=CC1C(CNC(=O)C(Cl)(Cl)Cl)C1(C)C (stereo not drawn),9.1
9,O=C(/C=C/N1CCCCC1)c1cccs1,5.4
10,CC(NC(=O)C(=O)NCC1CCCO1)c1ccccc1 (stereo not drawn),10
11,COc1ccccc1/C=C1\SC(=O)N(CCC(=O)Nc2ccc(S(=O)(=O)Nc3nccs3)cc2)C1=O,4
12,COc1ccc(OC)c(/C=N\N2CCN(c3ccccc3)CC2)c1,1.8
13,COc1cc(/C=N/N2C(=O)C3C(C2=O)C2C=CC3C23CC3)ccc1OCc1ccc([N+](=O)[O-])cc1 (stereo not drawn),5.9
14,O=C1NC(=S)N/C1=C/c1cccc(O)c1,-6.7
15,CN(C)c1ccc(/C=N/S(=O)(=O)c2cccs2)cc1,15.1
16,Cc1cccc(N2CCN(C(=O)c3c(-c4ccccc4Cl)noc3C)CC2)c1C,6.6
17,Cc1ccc(OCCOCCOc2ccc(/C=C3/SC(=S)N(C)C3=O)cc2)cc1,2.8
18,Cc1ccc2nc(NC(=O)c3ccc(F)cc3)sc2c1,0.7
19,CC(C(=O)O)n1c(O)c(/C=C2/C=Nc3ccccc32)sc1=S (stereo not drawn),-119
20,Cc1ccc2nc(/C(C#N)=C\c3ccc(N4CCCCC4)c([N+](=O)[O-])c3)[nH]c2c1,10.4
21,O=C1C2C(c3ccccc3)OC3(C(=O)c4ccccc4C3=O)C2C(=O)N1c1cccc(C(F)(F)F)c1 (stereo not drawn),-9.1
22,COc1ccc(-n2cnc3cc(NS(=O)(=O)c4ccc(C)cc4)ccc32)cc1,-1.2

row,SMILES,displacement [%]
1,Cc1nnc(NC(=O)CSc2nnc3c4ccccc4n(C(C)C)c3n2)s1,12.7
2,CC1CC(N(C(=O)C2CC2)c2ccccc2)c2ccccc2N1C(=O)C1CC1 (stereo not drawn),-6.7
3,O=C(O)CCC(=O)c1cccc([N+](=O)[O-])c1,1.9
4,CCOC(=O)C(=CNc1ccc(C)c(C)c1)C(=O)OCC,-5.6
5,COc1ccc(OC)c(S(=O)(=O)n2cnc3cc(C)c(C)cc32)c1,15.9
6,Cc1cc(C)nc(NC(=O)c2ccc(F)cc2)c1,-8.1
7,COc1cc([N+](=O)[O-])ccc1NC(=O)c1cc(Cl)ccc1Cl,-10.5
8,COc1ccc(OC)c(N(CC(=O)NC(C)(C)CO)S(=O)(=O)c2ccccc2)c1,7.3
9,C=CCn1cc(I)c(=O)n(CC=C)c1=O,4.3
10,COCCNC(=O)CN(c1cccc(C(F)(F)F)c1)S(C)(=O)=O,1.1
11,COC(=O)c1cc(NC(=O)c2ccc3ccccc3c2)cc(C(=O)OC)c1,11.1
12,S=c1[nH]nc(-c2ccccc2)n1Cc1ccccc1,-6.7
13,COc1ccc(/C=N/n2c(C)nnc2C)cc1,-8.8
14,O=C(c1cc2ncc(Br)cn2n1)N1CCCCC1,-10.7
15,C=CCN1C(=O)/C(=C\c2cc3c(cc2Br)OCO3)SC1=S,2.1
16,CC(C)(C)NC(=O)CSc1nc(O)cc(=O)n1-c1ccccc1,-8.4
17,COc1cc(/C=C2\C(=O)NC(=O)N(c3cc(C)cc(C)c3)C2=O)cc(Cl)c1OC,-7.8
18,CC1=C(C(=O)OC(C)C)C(c2ccccc2Br)CC(=O)N1 (stereo not drawn),-5.3
19,O=C(O)CCNC(=O)COc1ccccc1,8.3
20,COc1ccc(Cl)cc1NC(=O)c1ccc([N+](=O)[O-])cc1,15.5
21,CC(=O)NC12CC3CC(C1)C(=O)C(C3)C2,-10
22,O=C1NN(c2ccccc2)C(=O)/C1=C/c1ccc(-c2ccc(F)cc2)o1,8.1

row,SMILES,displacement [%]
1,O=C1NC(=S)NC(=O)C1=Cc1ccccc1OCCOc1ccccc1,14.3
2,Cc1c(NC(=S)NC(=O)c2ccco2)cccc1-c1nc2ccccc2s1,11
3,N#C/C(=C\Nc1ccc(S(=O)(=O)Nc2nccs2)cc1)c1nc(-c2ccc(Cl)cc2)cs1,-6.7
4,COCCOC(=O)c1ccc(NC(=O)c2c(-c3ccccc3Cl)noc2C)cc1,-5.1
5,CCN(CC)CCSc1nc(O)c(-c2ccccc2)c(=O)n1-c1ccccc1,-9.6
6,COc1cc(C(=O)NC(NC(=S)Nc2ccc(Br)cc2)C(Cl)(Cl)Cl)cc(OC)c1OC (stereo not drawn),13.8
7,CC1=NN(C(=O)c2cccc(Cl)c2)C(O)(c2ccc(Cl)cc2)C1 (stereo not drawn),10
8,O=C1C(C=NCc2ccc3c(c2)OCO3)=C(O)c2ccccc21,134
9,Cc1ccc(OCCCCCCn2ccnc2)c(C)c1,-11.6
10,COc1ccc(/C=C/C(=O)N(C(C)C)C(C)C)cc1Br,10.4
11,CC(C)CCNC(=O)c1ccc([N+](=O)[O-])cc1Cl,8.5
12,CCn1c2ccccc2c2cc(NC(=O)c3ccc(C)c([N+](=O)[O-])c3)ccc21,1
13,CC(C)C(=O)N1c2ccccc2NC2=C(C(=O)CC(c3ccccc3)C2)C1c1ccco1 (stereo not drawn),-15.4
14,CC1(C)Cc2c(sc3ncnc(NCc4ccccc4)c23)CO1,-5.4
15,O=C(NCc1ccco1)c1cnn2c(C(F)(F)F)cc(-c3ccccc3)nc12,-12.1
16,Cc1ccc(C=Nc2ccc(F)cc2)o1,4.1
17,CCOC(=O)CSc1nc2c(c(=O)n(C)c(=O)n2C)n1C,17.9
18,O=C(NC(NC(=S)Nc1ccc(-c2ccccc2)cc1)C(Cl)(Cl)Cl)c1ccccc1Cl (stereo not drawn),8
19,O=C(Nc1ccc(-c2nc3ncccc3o2)cc1)c1cccc(OCc2ccccc2)c1,110
20,CCN(CC)S(=O)(=O)c1ccc(Cl)c(C(=O)Nc2ccccc2C(=O)O)c1,-8.1
21,COc1cc(C(=O)N/N=C/c2c[nH]c3ccccc23)ccc1O,5.3
22,CCOC(=O)c1c(NC(=O)c2ccc(F)cc2)sc(C(=O)Nc2cc(C(F)(F)F)ccc2Cl)c1C,13.6

row,SMILES,displacement [%]
1,CC1=C(C(=O)Nc2ccccc2C)C(c2ccc(F)cc2)NC(=S)N1 (stereo not drawn),-3.3
2,O=C(Oc1ccc([N+](=O)[O-])cc1)c1ccc(Br)c(S(=O)(=O)N2CCCCC2)c1,-10.9
3,COc1ccc(/C=C/C(=O)n2cc(C)nc2C)cc1OC,-5.3
4,Cn1c(=O)c2c(nc(Oc3cccc(C4Nc5ccc6ccccc6c5C5=C4C(=O)CC(C)(C)C5)c3)n2C)n(C)c1=O (stereo not drawn),-4.2
5,COCCNCCOc1cccc(Cl)c1Cl,2.3
6,O=C(Nc1ccccc1C#Cc1ccccc1)c1ccco1,2.6
7,CCOC(=O)c1c(N)n(CCO)c2nc3ccccc3nc12,18.6
8,Cc1cc(C)cc(NS(=O)(=O)c2ccc3ccccc3c2)c1,4.5
9,COc1ccc(CN2CCN(C(=O)c3ccc(F)cc3)CC2)cc1Br,8.4
10,Cc1c(NC(=O)c2ccc(-c3ccc([N+](=O)[O-])cc3)o2)cccc1-c1nc2ncccc2o1,22.9
11,O=C1C(=O)N(c2cccc(Cl)c2)C(c2ccccc2F)/C1=C(\O)c1ccccc1 (stereo not drawn),-2.9
12,CCOC(=O)c1c(NC(=O)c2c(C(=O)O)cccc2[N+](=O)[O-])sc(C)c1C,9
13,C/C(=N\N1CCN(Cc2cccc3ccccc23)CC1)c1cccnc1,-2.2
14,Cc1cc2nc(-c3cc(N)ccc3Cl)oc2cc1C,-2.2
15,CCN1C(=O)/C(=C/c2c(N3CCN(C)CC3)nc3ccccn3c2=O)SC1=S,-115
16,CC1CCOP(=O)(C(Nc2ccc(C(C)C)cc2)c2ccc(Br)cc2)O1 (stereo not drawn),-7.4
17,O=C(Nc1nc2ccc([N+](=O)[O-])cc2s1)c1cccc(Oc2ccccc2)c1,14.7
18,COc1ccccc1C(=O)N1CCN(C(=O)c2ccc([N+](=O)[O-])cc2)CC1,16.8
19,CCC(=O)N1c2ccccc2NC2=C(C(=O)CC(c3ccco3)C2)C1c1ccco1 (stereo not drawn),-10
20,Cc1ccc(-c2nn(-c3ccccc3)cc2/C=C2\SC(N)=NC2=O)cc1,9.3
